# Screen size: about 280,000 compounds; about 1,100 (0.39%) were called active. Inconclusive results, whose numbers are uncertain, are shown with a selection of clear calls. Calls come from the whole dose curve; as a rule, active = well fitted inhibition curve with a large enough effect; inconclusive = small, poorly fitted or top-dose-only effect, or effect the other way; inactive = flat fitted curve, though single readings scatter. Potencies of inconclusive entries are left out as doubtful fits.
# Target: Microtubule-associated protein tau (Homo sapiens) (UniProt P10636)
# Assay: qHTS for Inhibitors of Tau Fibril Formation, Fluorescence Polarization; note: nearly all actives have a fitted effect of over 55% in size
# Conditions: K18 P301L tau heparin fibrillization, Alexa594 FP, 6 h; series mostly up to 57.7 µM
# Method in brief: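 Read-out: fluorescence polarization of Alexa 594-labeled tau (0.24 uM), 555 nm excitation, 632 nm emission. Mixtures held 15 uM unlabeled K18 P301L, compound and 20 uM heparin, pH 7 acetate buffer, incubated 6 hr at 37 C.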
# Potency is the fitted concentration of half-maximal effect; tags give direction and shape of the fitted curve.
# Sequence of UniProt P10636 (P10636 whole entry, looked up): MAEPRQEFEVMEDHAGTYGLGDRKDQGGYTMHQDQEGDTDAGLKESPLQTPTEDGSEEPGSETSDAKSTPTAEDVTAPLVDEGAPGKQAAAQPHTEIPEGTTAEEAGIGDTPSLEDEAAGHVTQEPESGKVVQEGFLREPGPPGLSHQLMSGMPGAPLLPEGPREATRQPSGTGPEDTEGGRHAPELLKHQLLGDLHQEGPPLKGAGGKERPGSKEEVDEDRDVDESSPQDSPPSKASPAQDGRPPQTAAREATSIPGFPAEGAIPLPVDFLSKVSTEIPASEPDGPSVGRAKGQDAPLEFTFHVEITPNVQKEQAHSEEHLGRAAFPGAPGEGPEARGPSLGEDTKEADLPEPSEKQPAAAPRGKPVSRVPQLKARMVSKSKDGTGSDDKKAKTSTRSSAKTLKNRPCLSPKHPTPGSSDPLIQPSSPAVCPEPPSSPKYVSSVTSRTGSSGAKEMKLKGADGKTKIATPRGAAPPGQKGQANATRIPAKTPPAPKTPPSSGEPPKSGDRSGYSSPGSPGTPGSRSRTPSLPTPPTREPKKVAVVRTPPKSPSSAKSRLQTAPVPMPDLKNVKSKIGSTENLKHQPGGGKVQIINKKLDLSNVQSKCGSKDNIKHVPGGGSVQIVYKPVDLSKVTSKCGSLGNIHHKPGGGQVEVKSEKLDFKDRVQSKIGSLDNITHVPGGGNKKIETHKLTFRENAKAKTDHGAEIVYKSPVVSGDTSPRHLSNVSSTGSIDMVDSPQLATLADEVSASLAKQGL
row,SMILES,Potency
1,Cc1c(N(C)CS(=O)(=O)O)c(=O)n(-c2ccccc2)n1C,"inconclusive [inhibitor, single point]"
2,CCc1ccccc1NC(=O)Cn1c(=O)n(-c2ccccc2)c(=O)c2oc3ccccc3c21,inactive
3,CCOc1ccc(NC(=O)Cn2nnc(C(=O)NCCc3ccc(OC)c(OC)c3)c2N)cc1,"inconclusive [activator, partial curve]"
4,CCCCNC(=O)CSc1nc2ccc(N3CCOCC3)cc2c(=O)n1CCc1ccccc1,inactive
5,O=C(Cn1c(=O)n(Cc2ccco2)c(=O)c2ccccc21)Nc1cccc(F)c1,"inconclusive [inhibitor, partial curve]"
6,O=C(C1CCCCC1)N(Cc1cccnc1)c1nc2ccc(Cl)cc2s1,inactive
7,COc1ccc2c(c1)CC(C(=O)Nc1ccc(Br)c(C)c1)CO2 (configuration not stated),inactive
8,COc1cc(N=c2ssnc2Cl)c(OC)cc1Cl,"inconclusive [inhibitor, partial curve]"
9,C=CCc1cc(Cl)ccc1OCCN1CC(C)OC(C)C1 (configuration not stated),inactive
10,CCCCn1c(SCC(=O)NCc2ccco2)nc2c(sc3ccccc32)c1=O,"inconclusive [inhibitor, single point]"
11,CCn1c(SCC(=O)Nc2ccc(C(=O)OC)cc2)nc2cccnc21,"inconclusive [inhibitor, single point]"
12,COc1ccc(S(=O)(=O)Nc2ccccc2-c2nnn(CC(=O)Nc3ccccc3OC)n2)cc1,"inconclusive [inhibitor, partial curve]"
13,CN(C)S(=O)(=O)c1cccc(C(=O)Nc2ccccc2[N+](=O)[O-])c1,inactive
14,Cc1ccc(C)c(C(=O)CC2(O)C(=O)N(C)c3ccccc32)c1 (configuration not stated),"inconclusive [inhibitor, single point]"
15,CCCCCCCCCCCCC(O)C(=O)O (configuration not stated),inactive
16,Cc1ccc(Cl)cc1N(C)C(=O)c1sc2nc3n(c(=O)c2c1C)CCCC3,"inconclusive [inhibitor, single point]"
17,Oc1cccc(/C=N/N2CCN(c3ccccn3)CC2)c1,inactive
18,CCN(CC)S(=O)(=O)c1cc(C(=O)OCC(=O)Nc2cccc(S(=O)(=O)N(C)C)c2)ccc1F,"inconclusive [inhibitor, partial curve]"
19,CCCCn1c(-c2csc(C(C)C)c2)n[nH]c1=S,inactive
20,Cc1cc(O)c(C(C[N+](=O)[O-])c2ccc(Cl)cc2)c(=O)o1 (configuration not stated),"inconclusive [inhibitor, partial curve]"
21,CC(C(=O)OCC(=O)c1ccc([N+](=O)[O-])cc1)N1C(=O)C2C3CCC(C3)C2C1=O (configuration not stated),"inconclusive [inhibitor, single point]"

row,SMILES,Potency
1,C=CCn1c(SCc2cc(C(C)=O)ccc2OCC)nc2ccccc2c1=O,inactive
2,O=C(Cn1c(=O)n(Cc2ccco2)c(=O)c2sc3ccccc3c21)Nc1ccc(F)cc1F,"inconclusive [inhibitor, partial curve, poor fit]"
3,O=C(O)CN1C(=O)S/C(=C\c2cccnc2)C1=O,"inconclusive [inhibitor, single point]"
4,COc1ccc(-c2cc(C(F)(F)F)c(C#N)c(SCC(=O)Nc3cccc(C)c3)n2)cc1,"inconclusive [inhibitor, partial curve]"
5,Cc1ccc(S(=O)(=O)N2CCC(C(=O)NNC(=O)C3CC3)CC2)cc1Cl,"inconclusive [inhibitor, single point]"
6,O=c1[nH]c(=O)n(C2CCCO2)cc1F (configuration not stated),"inconclusive [inhibitor, single point]"
7,COc1ccc(-c2nc(NC(=O)Cn3ccc(C(F)(F)F)n3)sc2C)cc1,"inconclusive [inhibitor, single point]"
8,CC(OC(=O)c1ccc(NS(=O)(=O)c2ccc3[nH]c(=O)[nH]c3c2)cc1)C(=O)Nc1ccc(Cl)cc1 (configuration not stated),"inconclusive [inhibitor, partial curve]"
9,CCN1CCN(Cc2ccc(NC(=O)c3cc(NC(=O)c4cc5cccc(OC)c5o4)cc(OC)c3)cc2C(F)(F)F)CC1,"inconclusive [inhibitor, partial curve]"
10,Cc1cc(N2CCN(C)CC2)nc2ccc(NC(=O)Nc3ccc(F)cc3)cc12,"inconclusive [activator, partial curve, poor fit]"
11,COc1ccc(OC)c(N2C(=O)C(Cl)=C(N3CCCCC3)C2=O)c1,active: 15.8 µM
12,COc1ccc(CCNC(=O)c2ccc3nc(-c4ccco4)c(-c4ccco4)nc3c2)cc1OC,"inconclusive [inhibitor, partial curve]"
13,O=C(CCC(=O)N1CCOc2ccccc21)NCc1cccs1,"inconclusive [inhibitor, single point]"
14,Cc1ccc(NS(=O)(=O)c2ccc3c(c2)C(=O)c2ccccc2C3=O)c(C)c1,"inconclusive [activator, full curve]"
15,Nc1ncnc(Nc2ccc(F)cc2)n1,inactive
16,CCc1ccc2[nH]c3nc(SCc4nnc(-c5ccccc5)o4)nnc3c2c1,"inconclusive [inhibitor, partial curve]"
17,CS(=O)(=O)c1ccc2nc(NC(=O)c3cccc(NS(=O)(=O)c4ccc(F)c(F)c4)c3)sc2c1,"inconclusive [inhibitor, partial curve]"
18,S=c1[nH]nc(-c2cccnc2)n1/N=C/c1ccco1,"inconclusive [inhibitor, single point]"
19,COc1cccc2cc(-c3nc4ccc(C)cc4[nH]3)c(=O)oc12,"inconclusive [inhibitor, single point]"
20,O=C(CCS(=O)(=O)c1cc2c(cc1Cl)NC(=O)CO2)NCc1ccccc1,"inconclusive [inhibitor, full curve]"
21,CCCC(=O)N1CCN(c2ccc(NC(=O)c3ccc([N+](=O)[O-])o3)cc2Cl)CC1,"inconclusive [activator, single point]"

# Reference: PubChem BioAssay AID1468 (National Center for Advancing Translational Sciences (NCATS), 2008)
